According to PubChem BioAssay (NCATS):
Inconclusive results are not listed. Calls follow the shape of the dose curve; as a rule, active = well fitted cell-killing curve with a large enough effect; inconclusive = small, poorly fitted or top-dose-only effect; inactive = flat fitted curve, though single readings scatter. Some structures have more than one record in an assay (separate samples or runs), and their calls can disagree. Some entries of the source have several records that differ or are many. They are shown here; other results are not. An entry can have further records. The records of an entry are repeats across runs, samples, wells, individuals or studies. What stands in brackets tells the records apart. The letters are not those of the source and start again with each entry.

assay: qHTS of pediatric cancer cell lines to identify multiple opportunities for drug repurposing: Primary screen for RD cells (AID 1347104); conditions: RD rhabdomyosarcoma viability, CellTiter-Glo luminescence, 48 h; series mostly up to 46 µM; also: nearly all actives have a fitted effect of over 55% in size
Outline: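 ATP-based luminescence (CellTiter-Glo) quantifies viability after a 48-hour exposure. Compounds are dosed across 8 or 11 final concentrations; DMSO and 2.3 µM bortezomib serve as controls.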
Potency is read from the fitted curve at half-maximal effect.

Compound | Potency
CCOC(=O)[C@H](CCc1ccccc1)N[C@H]1CS[C@H](c2cccs2)CN(CC(=O)O)C1=O | active: 1.87 µM [sample A] and inactive [sample B]
COc1cc2c(Nc3ccc(Br)cc3F)ncnc2cc1OCC1CCN(C)CC1 | active: 16.6 µM [sample A] and inactive [sample B]
CC(C)Cn1cnc2c(N)nc3ccccc3c21 | inactive [sample A] and active: 16.6 µM [sample B]
CC(C(=O)O)c1ccc2c(c1)CC(=O)c1ccccc1S2 (stereo not given) | active: 5.26 µM [sample A] and inactive [sample B]
O=c1cc(O)c(Cl)c[nH]1 | active: 2.96 µM [sample A] and inactive [sample B]
CC(C)(C#N)c1cc(Cn2cncn2)cc(C(C)(C)C#N)c1 | inactive [sample A] and active: 26.4 µM [sample B]
COc1ccc(C(=O)CC(=O)c2ccc(C(C)(C)C)cc2)cc1 | inactive [sample A] and active: 3.72 µM [sample B]
C[C@@H](CN1CC(=O)NC(=O)C1)N1CC(=O)NC(=O)C1 | inactive [sample A] and active: 16.6 µM [sample B]
COc1cnc(NS(=O)(=O)c2ccc(N)cc2)nc1 | inactive [sample A] and active: 26.4 µM [sample B]
Cc1nnc(NS(=O)(=O)c2ccc(N)cc2)s1 | inactive [sample A] and active: 2.35 µM [sample B]
